Measurements as given in the RNAGym collection of RNA variant scans (doi:10.7554/elife.90254).
The source gives no read counts; variants with many changes may rest on few reads.

B1: OR4K15 (parent)
chain: GUUAACGGUCAUAGGCCAUGGAAACUAGGAGCACCAUUUCGCUGCCAGUGAAGAAAUGAACAAAGAAAAUCUGGGCCAGGCAGGCAUCAAAAGAAAUAGUCUUGCGCUCAACCAGAAAGUCUGUAAUCAUUUUAAGGGUA

Variants of: B1
Experiment: self-cleavage, relative activity (ratio to wild type); higher = more cleavage; in vitro, sequencing; the parent is a self-cleaving ribozyme

Variant | self-cleavage
GUUAACGGUCAUAGGCCAUGGAAACUAGGAGCGCCAUUUCGCUGCCAGUGAAGAAAUGAACAAAGAAAAUCUGGGCCAGGCAGGCAUCGAAAGAAAUAGUCUUGCGCUCAGCCAGAGAGCCUGUAUUCAUUUUAAGGGUA [A33G A89G A111G A117G U120C A126U] | 0
GUUAACGGUCAUAGGCCAUGGAAACUAGGAGCGCCAUUUCGCUGCCAGUGAAGAAAUGAACAAAGAAAAUCUGGGCCAGGCGGGCAUCAAAAGAAAUAAUCUUGCGCUCAACCAGAAAGUCUGUAAUCAUUUUAAGGGUA [A33G A82G G99A] | 0.05
GUUAACGGUCAUAGGCCAUGGAAACUAGGAGCGCCAUUUCGCUGCCAGUGAAGAAAUGUACAAAGGAAGUCUGGGCCAGGCAGGCAUCAAAAGAAAUAGUCUCGCGCUCAACCAGAAAGUCUGUAAUCAUUUUAAGGGUA [A33G A59U A66G A69G U103C] | 0.17
GUUAACGGUCAUAGGCCAUGGAAACUAGGAGCGCCAUUUCGCUGCCAGUGAAGAAAUGAACAAAGGAGAUCUGGGCCAGGCAGGCAUCAAAAGAGAUAGUCUUGCGCUCAACCAGAAAGUCUGUAAUCAUUUUAAGGGUA [A33G A66G A68G A95G] | 1.24
GUUAACGGUCAUAGGCCAUGGAAACUAGGAGCGCCAUUUCGCUGCCAGUGAAGAAAUGAACAGAGAAAAUCUGGGCCGGGCAGGCAUCAAAAGAAAUAGUCUUGCGCUCAACCAGAAAGUCUGUAAUCAUUUUAAGGGUA [A33G A63G A78G] | 0.13
GUUAACGGUCAUAGGCCAUGGAAACUAGGAGCGCCAUUUCGCUGCCAGUGAAGAAAUGAACGAAGAAAAUCUGGGCCAGGCAGGCGUCAAAAGAAAUAGUCGUGCGCUCAACCAGAAAGUCUGUAAUCACUAUAAGGGUA [A33G A62G A86G U102G U130C U132A] | 0.04
GUUAACGGUCAUAGGCCAUGGAAACUAGGAGCGCCAUUUCGCUGCCAGUGAAGAAAUGAACAAAGAAGAUCUGGGCCAGGCAGGCAUCAAAAGAAAUAGUCUUGCGCUCAACCAGAAAGUCAGUAAUCAUUUUAAGGGUA [A33G A68G U122A] | 0.26
GUUAACGGUCAUAGGCCAUGGAAACUAGGAGCGCCAUUUCGCUGCCAGUGAAGAAAUGAACAAAGAAAAUCUGGGCCAGGCAGGCAUCAGAAGAAAUAGUCUUGCGCUCAACCUGAAAGCCUGUAAUCAUUUUAAGGGUA [A33G A90G A114U U120C] | 0.04
GUUAACGGUCAUAGGCCAUGGAAACUAGGAGCGCCAUUUCGCUGCCAGUGAAGAAAUGAACAAAGAAAAUCUGGGCCAGGCAGGCAUCAAGAGAAAUAGUCUUGCGCUCAACCAGAAGGUCUGUAAUCAUUUUAAGGGUA [A33G A91G A118G] | 0.16
GUUAACGGUCAUAGGCCAUGGAAACUAGGAGCGCCAUUUCGCUGCCAGUGAAGAAAUGAGCAAAGAAGAUCUGGGCCAGGCAGGCAUCAAAAGAAAUAGUCUUGCGCUCAACCAGAAAGUCUGUAAUCAUUUUAAGGGUA [A33G A60G A68G] | 0.54
GUUAACGGUCAUAGGCCAUGGAAACUAGGAGCGCCAUUUCGCUGCCAGUGAAGAAAUGAACAAAGUAAAUCUGGGCCAGGCAGGCAUCAAAAGAAAUAGUCUUGCGCUCAACCAGAAAGUCUGUAAUCACUUUAAGGGUA [A33G A66U U130C] | 0.6
GUUAACGGUCAUAGGCCAUGGAAACUAGGAGCGCCAUUUCGCUGCCAGUGAAGAAAUGAACAAAGAAAAUCUGGGCCAGGCAGGCAUCAAAAGAGAUAGUCUUGCGCUCAACCAGAAAGCCUGUAAUCACUUUAAGGGUA [A33G A95G U120C U130C] | 0.45
GUUAACGGUCAUAGGCCAUGGAAACUAGGAGCGCCAUUUCGCUGCCAGUGAAGAAAUGAACAAAGAAAAUCUGGGCCAGGCAGGCAUCAAAAGAAAUAGUCUUGCGCUCAGCCAGAAAGUCUGCAAUCAUUUUAAGGGUA [A33G A111G U124C] | 0.02
GUUAACGGUCAUAGGCCAUGGAAACUAGGAGCGCCAUUUCGCUGCCAGUGAAGAAAUGAACGAAGAAGAUCUGGGCCAGGCUGGCACCAAAAGAAGUAGUCUUGCGCUCAACCAGAAAGUCUGUAAUCAUUUUAAGGGUA [A33G A62G A68G A82U U87C A96G] | 0.02
GUUAACGGUCAUAGGCCAUGGAAACUAGGAGCGCCAUUUCGCUGCCAGUGAAGAAAUGAACAAAGAAAAUCUGGGCCAGGCAGGCAUCAAAAGAAAUAGUCUUGCGCUCAACCAGGAAGUCUGUAAUCAUUUUAGGGGUA [A33G A116G A135G] | 0.13
GUUAACGGUCAUAGGCCAUGGAAACUAGGAGCGCCAUUUCGCUGCCAGUGAAGAAAUGGACAAAGAAAAUCUGGGCCAGGCAGGCAUCAAAAGAGAUAGUCUUGCGCUCAACCAGAAAGUCUGUAAUCAUUUUAAGGGUA [A33G A59G A95G] | 1.74
GUUAACGGUCAUAGGCCAUGGAAACUAGGAGCGCCAUUUCGCUGCCAGUGAAGAAAUGAACAAGGAAAAUCUGGGCCAGGCAGGCAUCAGAAGAAAUAGUCUUGUGCUCAACCAGGAAGUCUGUAAUCAUUCUAAGGGUA [A33G A64G A90G C105U A116G U132C] | 0.04
GUUAACGGUCAUAGGCCAUGGAAACUAGGAGCGCCAUUUCGCUGCCAGUGAAGAAAUGAACAAAGAAGAUCUGGGCCAGGCAGGCAUCGAAAGAAAUAGUCUUGCGCUCAACCAGAAAGUCUGUAAUCAUUUUAAGGGUA [A33G A68G A89G] | 0.93
GUUAACGGUCAUAGGCCAUGGAAACUAGGAGCGCCAUUUCGCUGCCAGUGAAGAAAUGAACAAGGAAAGUCUGGGCCAGGCAGGCAUCAAAAGAAAUAGUCUUGCGCUCAACCAGAAAGUCUGUAAUCAUUUUAAGGGUA [A33G A64G A69G] | 0.89
GUUAACGGUCAUAGGCCAUGGAAACUAGGAGCGCCAUUUCGCUGCCAGUGAAGAAAUGAGCAAAGAAAAUCUGGGCCAGGCAGGCAUCAAAAGGAAUAGUCUUGCGCUCAACCAGAAAGUCUGUAAUCAUUUUAAGGGUA [A33G A60G A94G] | 1.57
GUUAACGGUCAUAGGCCAUGGAAACUAGGAGCGCCAUUUCGCUGCCAGUGAAGAAAUGAACAAAGAAAAUCUGGGCCAGGCAGGCAUCAAGAGAAAUAGUCUUGCGCUCAACCAGAAAGCCUGUAAUCAUUUUAAGGGUA [A33G A91G U120C] | 0.29

Variant | self-cleavage
GUUAACGGUCAUAGGCCAUGGAAACUAGGAGCGCCAUUUCGCUGCCAGUGAAGAAAUGAACAAAGAAAAUCUGGGCCAGGCAGGCAUCAAAAGAAAUAGUCUUGCGCUCAACCAGAGAGUCUGCAAUCAUUUUAAGGGUA [A33G A117G U124C] | 0.4
GUUAACGGUCAUAGGCCAUGGAAACUAGGAGCGCCAUUUCGCUGCCAGUGAAGAAAUGAACAAAGAAAAUCUGGGCCAGGCAGGCAUCAAAAGGAAUAGUCUUGCGCUCAACCAGAAAGUCUGAAAUCAUUUUAAGGGUA [A33G A94G U124A] | 0.49
GUUAACGGUCAUAGGCCAUGGAAACUAGGAGCGCCAUUUCGCUGCCAGUGAAGAAAUGAACAAAGAAAGUCUGGGCCAGGCAGGCAUCAAAAGAAAUAGUCUUGCGCUCAACCAGAAAGUCUGUUAUCAUUUUAAGGGUA [A33G A69G A125U] | 0.48
GUUAACGGUCAUAGGCCAUGGAAACUAGGAGCGCCAUUUCGCUGCCAGUGAAGAAAUGAACAAAGAAAAUCUGGGCCAGGCAGGCAUCAAAAGAAAUAGUCUUGCGCUCAACCGGAAAGUCUGUGAUCAUUUUAAGGGUA [A33G A114G A125G] | 0.05
GUUAACGGUCAUAGGCCAUGGAAACUAGGAGCGCUAUUUCGCUGCCAGUGAAGAAGUGUACAGAGAAAAUCUGGGCCAGGCAGGCAUCAAAAGAAAUAGUCUUGCGCUCAACCAGAAAGUCUGUAAUCAUUUUAAGGGUA [A33G C35U A56G A59U A63G] | 0.64
GUUAACGGUCAUAGGCCAUGGAAACUAGGAGCGCCAUUUCGCUGCCAGUGAAGAAAUGAACAGAGAGAAUCUGGGCCAGGCAGGCAUCAAAAGAAAUAGUCUUGCGCUCAACCAGAAAGUCUGUAAUCAUUUUAAGGGUA [A33G A63G A67G] | 0.93
GUUAACGGUCAUAGGCCAUGGAAACUAGGAGCGCCAUUUCGCUGCCAGUGAAGAAAUGAACUAAGAAAAUCUGGGCCAGGCAGGCUUCAAAAGAAAUAGUCCUGCGCUCAGCCAGAAAGUCUGUAAUCAUUUUAAGGGUA [A33G A62U A86U U102C A111G] | 0.01
GUUAACGGUCAUAGGCCAUGGAAACUAGGAGCGCCAUUUCGCUGCCAGUGAAGAAAUGAGCAAAGAAAAUCUGGGCCAGGCAGGCAUCAAAAGAAAUAGUCUUGCGCUCAACCAGGAAGUCUGUAAUCAUUUUAAGGGUA [A33G A60G A116G] | 0.34
GUUAACGGUCAUAGGCCAUGGAAACUAGGAGCGCCAUUUCGCUGCCAGUGAAGAAAUGAGCAAAGAAAAUCUGGGCCAGGCAGGCAUCAAAGGAAAUAGUCUUGCGCCCAACCAGAAAGUCUGUAAUCAUUUUAAGGGUG [A33G A60G A92G U108C A140G] | 0.01
GUUAACGGUCAUAGGCCAUGGAAACUAGGAGCGCCAUUUCGCUGCCAGUGAAGAAAUGUACAAAGAAAAUCUGGGCCAGGCAGGCAUCAAAAGAAAUAGUCUUGCGCUCAACCAGAAAGUCUGUGAUCAUUUUAAGAGUA [A33G A59U A125G G137A] | 0
GUUAACGGUCAUAGGCCAUGGAAACUAGGAGCGCCAUUUCGCUGCCAGUGAAGAAAUGAACGAAGAAAAUCUGGGCCAGGCAGGCAUCAAAAGAAAUAGUCUUGCGCUCAAUCAGGAAGUCUGUAAUCAUUUUAAGGGUA [A33G A62G C112U A116G] | 0.01
GUUAACGGUCAUAGGCCAUGGAAACUAGGAGCGCCAUUUCGCUGCCAGUGAAGAAAUGAACGAAGAAAAUCUGGGCCAGGCAGGCAUCAAAAGAAAUAGUCUUGCGCUCAACCAGAGAGUCUGUAAUCAUUUUAAGGGUA [A33G A62G A117G] | 1.42
GUUAACGGUCAUAGGCCAUGGAAACUAGGAGCGCCAUUUCGCUGCCAGUGAAGAAAUGAACAAAGUAAAUCUGGGCCAGGCAGGCAUCAAAAGAAAUAGUCUUGCGCCCAACCAGUAAGCCUGUAAUCUUUUUAAGGGUA [A33G A66U U108C A116U U120C A129U] | 0
GUUAACGGUCAUAGGCCAUGGAAACUAGGAGCGCCAUUUUGCUGCCAGUGAAGAAAUGAACAAAGAAAAUCUGGGCCAGGCAGGCAUCAAAAGAAAUAGUCUUGCGCUCAACCAGUAAGUCUGUAAUCAUUUUAAGGGUA [A33G C40U A116U] | 0.05
GUUAACGGUCAUAGGCCAUGGAAACUAGGAGCGCCAUUUCGCUGCCAGUGAAGAAAUGAGCAAAGAAAAUCAGGGCCAGGCAGGCAUCAAAAGAAAUAGUCUUGCGCUCAACCAGAAAGUCUGUAAUCAUUUUAAGGGUA [A33G A60G U72A] | 0.13
GUUAACGGUCAUAGGCCAUGGAAACUAGGAGCGCCAUUUCGCUGCCAGUGAAGAAAUGAGCAAAGAAAAUCUGGGCCAGGCAGGCAUCAAAAGAAAUAGUCUUGCGCUCAACCAGAAAGUCUGUAACCAUUUUAAGGGUA [A33G A60G U127C] | 0.24
GUUAACGGUCAUAGGCCAUGGAAACUAGGAGCGCCAUUUCGCUGCCAGUGAAGAAAUGAACAAAGAAUAUCUGGGCCAGGCAGGCACCAAAAGAAAUAGUCUUGCGCUCAACCAGGAAGUCUGUAAUCAUUUUAAGGGUA [A33G A68U U87C A116G] | 0.16
GUUAACGGUCAUAGGCCAUGGAAACUAGGAGCGCCAUUUCGCUGCCAGUGAAGAAAUGAACAAAGAAAAUCUGGGCCAGGCAGGCAUCAAGAGAAAUAGUCUUGCGCUCAACCUGAAAGUCUGUAAUCAUUUUAAGGGUA [A33G A91G A114U] | 0
GUUAACGGUCAUAGGCCAUGGAAACUAGGAGCGCCAUUUCGCUGCCAGUGAAGAAAUGAACAAAGAUAAUCUGGGCCAGGCAGGCAUCAAAAGAAAUAGUCUUGCGCUCAACCAGAAGGUCUGUAAUCAUUUUAAGGGUA [A33G A67U A118G] | 0.7
GUUAACGGUCAUAGGCCAUGGAAACUAGGAGCGCCAUUUCGCUGCCAGUGAAGAAAUGAACAAAGAAAAUCUGGGCCAGGCAGGCAUCUAAAGAAAUAGUCCUGCGCUCAACCAGAAAGUCUGUAAUCAUUUUAAGGGUU [A33G A89U U102C A140U] | 2.29
